Measurements as given in US20230416410A1 (ZOETIS SERVICES, published 2023).

How the values were obtained:
[1] = target: T1, complement component C1q (in bovine complement preserved serum) (bovine, UniProt Q5E9E3 23-244; Q2KIV9 23-247); assay: cell-based or functional assay
[2] = target: T1, complement component C1q (in bovine …); assay: cell-based or functional assay; remark: listed apart in the source
[3] = target: T1, complement component C1q (in bovine …); assay: cell-based or functional assay; remark: listed apart in the source
recombinant bovine FcgR1 [4] = target: T2, recombinant bovine FcgR1 (bovine, biotin on the BAP tag (BirA)); assay: SPR Biacore, biotinylated receptor on SA sensor, pH 7.4, 15 C
T2 construct: also called bFcgR1; bFcgRI
Description: (§1) A Biacore SPR binding assay was designed to test the affinity of bovine IgG subclasses to bFcgR1, bFcgR2 and bFcgR3. All reported KD's were measured by Biacore (Cytiva, Marlborough, MA, USA) using series S SA sensor. Biotinylated-bovine FcgR1, R2 and R3 were captured on the sensor surface using a modified SA capture method to reach the desired surface density. 10 mM HEPES, 150 mM NaCl, 3 mM EDTA, 0.05% v/v surfactant P20, pH7.4 buffer was used as the running and titration buffer. Various concentrations of bovine CTLA4-Fc fusions or mAbs were titrated and flowed over the receptor surface and affinities were determined using Biacore T200 Evaluation software (Cytiva, Marlborough, MA, USA) with 1:1 binding model. The method of double referencing has been applied where the reference flow cell was subtracted from the flow cell containing immobilized receptors and blank runs containing buffer only were subtracted out from all runs. Flow cells were regenerated using 10 mM Glycine pH1.5. Runs were performed at 15° C.
The ability to knock out binding to bovine Fc gamma receptors was evaluated by comparing SPR Biacore bFcgR affinity of bIgG1a and bIgG1b wildtype Fc to the bIgG1a and bIgG1b mutations, described above. All mutations made to bIgG1 are identical for the a and b allotypes. Biacore methods for bFcgR1, R2, and R3 were performed as described in Example 1.

recombinant bovine FcgR1 [5] = target: T2, recombinant bovine FcgR1; assay: as above; remark: listed apart in the source
T2 sequence (main, as listed by the source): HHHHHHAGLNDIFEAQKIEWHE
Description: as §1
Biacore methods for bFcgR1, R2, and R3 were performed as described in Examples above. […] Although the two allotypes have different KDs for bFcgR2 and bFcgR3, both wildtype allotypes do bind. All of the mutations, bIgG3Win, bIgG3WinSAS, bIgG3SAS and bIgG3SAP for both the a and b allotypes knocked down binding to bFcgR1, bFcgR2 and bFcgR3 to negligible affinities. […]

T1 sequence (Q5E9E3 23-244, chain 1 of 2): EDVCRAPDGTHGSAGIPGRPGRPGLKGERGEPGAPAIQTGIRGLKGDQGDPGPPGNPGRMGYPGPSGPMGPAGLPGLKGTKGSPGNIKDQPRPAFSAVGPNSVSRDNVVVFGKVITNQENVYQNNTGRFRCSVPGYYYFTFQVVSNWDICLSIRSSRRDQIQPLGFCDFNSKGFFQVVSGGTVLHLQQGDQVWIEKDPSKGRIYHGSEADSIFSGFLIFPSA
T1 sequence (Q2KIV9 23-247, chain 2 of 2, further chain): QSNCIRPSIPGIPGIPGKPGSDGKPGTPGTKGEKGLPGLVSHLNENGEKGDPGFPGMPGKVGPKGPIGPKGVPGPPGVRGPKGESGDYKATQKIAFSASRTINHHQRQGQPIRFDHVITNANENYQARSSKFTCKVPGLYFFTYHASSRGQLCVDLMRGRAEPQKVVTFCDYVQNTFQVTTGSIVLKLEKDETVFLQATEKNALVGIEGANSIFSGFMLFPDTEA

B1: CTLA4 Fc bIgG1a (Fc fusion, canine)
chain: [sequence of about 120 residues not given]DPRCKTTCDCCPPPELPGGPSVFIFPPKPKDTLTISGTPEVTCVVVDVGHDDPEVKFSWFVDDVEVNTATTKPREEQFNSTYRVVSALRIQHQDWTGGKEFKCKVHNEGLPAPIVRTISRTKGPAREPQVYVLAPPQEELSKSTVSLTCMVTSFYPDYIAVEWQRNGQPESEDKYGTTPPQLDADGSYFLYSRLRVDRNSWQEGDTYTCVVMHEALHNHYTQKSTSKSAGK
notes: No linker; also called bIgG1a wildtype; CTLA4 Fc bIgG1a wildtype
[1]
  CDC EC50 Value: 0.013 µg/mL and 0.034 µg/mL
[2]
  CDC EC50 Value: 0.01 µg/mL and 0.015 µg/mL
[3]
  CDC EC50 Value: 0.013 µg/mL and 0.011 µg/mL
Recombinant bovine FcgR1 [4]
  Kd: 1.2 nM

B2: CTLA4 Fc bIgG1aSAP (Fc fusion, canine)
chain: [sequence of about 120 residues not given]DPRCKTTCDCCPPPELPGGPSVFIFPPKPKDTLTISGTPEVTCVVVDVGHDDPEVKFSWFVDDVEVNTATTKPREEQFNSTYRVVSALRIQHQDWTGGKEFKCKVHNEGLSAPIVRTISRTKGPAREPQVYVLAPPQEELSKSTVSLTCMVTSFYPDYIAVEWQRNGQPESEDKYGTTPPQLDADGSYFLYSRLRVDRNSWQEGDTYTCVVMHEALHNHYTQKSTSKSAGK
notes: No linker
Recombinant bovine FcgR1 [4]
  Kd: 148 nM

B3: CTLA4 Fc bIgG1aWin (Fc fusion, canine)
chain: [sequence of about 120 residues not given]DPRCKTTCDCCPPPEAAGAPSVFIFPPKPKDTLTISGTPEVTCVVVDVGHDDPEVKFSWFVDDVEVNTATTKPREEQFNSTYRVVSALRIQHQDWTGGKEFKCKVHNEGLPAPIVRTISRTKGPAREPQVYVLAPPQEELSKSTVSLTCMVTSFYPDYIAVEWQRNGQPESEDKYGTTPPQLDADGSYFLYSRLRVDRNSWQEGDTYTCVVMHEALHNHYTQKSTSKSAGK
notes: No linker
[1]
  CDC EC50 Value: 0.006 µg/mL
Recombinant bovine FcgR1 [4]
  Kd: 7.45 nM

B4: CTLA4 Fc bIgG1aWinSS (Fc fusion, canine)
chain: [sequence of about 120 residues not given]DPRCKTTCDCCPPPEAAGAPSVFIFPPKPKDTLTISGTPEVTCVVVDVGHDDPEVKFSWFVDDVEVNTATTKPREEQFNSTYRVVSALRIQHQDWTGGKEFKCKVHNEGLPSSIVRTISRTKGPAREPQVYVLAPPQEELSKSTVSLTCMVTSFYPDYIAVEWQRNGQPESEDKYGTTPPQLDADGSYFLYSRLRVDRNSWQEGDTYTCVVMHEALHNHYTQKSTSKSAGK
notes: No linker
Recombinant bovine FcgR1 [4]
  Kd: 54.8 nM

B5: CTLA4 Fc bIgG3a (Fc fusion, canine)
chain: [sequence of about 120 residues not given]TARRPVPTTPKTTIPPGKPTTPKSEVEKTPCQCSKCPEPLGGLSVFIFPPKPKDTLTISGTPEVTCVVVDVGQDDPEVQFSWFVDDVEVHTARTKPREEQFNSTYRVVSALRIQHQDWLQGKEFKCKVNNKGLPAPIVRTISRTKGQAREPQVYVLAPPREELSKSTLSLTCLITGFYPEEIDVEWQRNGQPESEDKYHTTAPQLDADGSYFLYSKLRVNKSSWQEGDHYTCAVMHEALRNHYKEKSISRSPGK
notes: No linker; also called bIgG3a wildtype; CTLA4 Fc bIgG3a wildtype
[3]
  CDC EC50 Value: 0.021 µg/mL and 0.022 µg/mL
Recombinant bovine FcgR1 [5]
  Kd: 9.36 nM

B6: CTLA4 Fc bIgG3aWin (Fc fusion, canine)
chain: [sequence of about 120 residues not given]TARRPVPTTPKTTIPPGKPTTPKSEVEKTPCQCSKCPEAAGALSVFIFPPKPKDTLTISGTPEVTCVVVDVGQDDPEVQFSWFVDDVEVHTARTKPREEQFNSTYRVVSALRIQHQDWLQGKEFKCKVNNKGLPAPIVRTISRTKGQAREPQVYVLAPPREELSKSTLSLTCLITGFYPEEIDVEWQRNGQPESEDKYHTTAPQLDADGSYFLYSKLRVNKSSWQEGDHYTCAVMHEALRNHYKEKSISRSPGK
[3]
  CDC EC50 Value: 0.03 µg/mL

Where “and” joins values, the source holds several entries; their conditions need not be identical. Identical values can stand only once. Like-named read-outs stand apart in the source and are kept apart here.
